{"source": "the supplement of paper PMC3334620", "note": "The full ranking holds about 33,000 sequences; the median of “E-score (-0.5 to 0.5)” is about -0.01, and the highest 2% start at about 0.26. This is one part of the list.", "data": [{"biological_target": "Ste12 (UniProt P13574)", "assay": "PBM E-score (8-mer binding enrichment) (E-score (-0.5 to 0.5)); higher = stronger / more preferred TF binding; most listed sequences are background and not binding sites", "settings": "protein concentration: 200 nM; construct: GST-DNA-binding domain", "description": "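Universal 'all 10-mer' protein binding microarrays (Agilent AMADID 015681) probed with GST-tagged S. cerevisiae TFs (full-length or DBD) made by in vitro transcription/translation (PURExpress), about 100-200 nM. Bound TF was detected with fluorescent anti-GST. Each ungapped 8-mer (which stands for itself and its reverse complement) is scored by the PBM enrichment score (E-score), a modified Wilcoxon-Mann-Whitney statistic from -0.5 to +0.5, computed with the Universal PBM Analysis Suite. Scale: above 0.35 generally sequence-specific binding.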", "values": [{"sequence": "ACTCTCGC", "PBM E-score": -0.0613}, {"sequence": "AGGAACGA", "PBM E-score": -0.0861}, {"sequence": "CCGACTGC", "PBM E-score": -0.00603}, {"sequence": "ACTCAGCT", "PBM E-score": 0.0516}, {"sequence": "ATCTGCAA", "PBM E-score": -0.0772}, {"sequence": "ACTGCGGA", "PBM E-score": 0.0413}, {"sequence": "ACCGCGCT", "PBM E-score": -0.16}, {"sequence": "GATCGGGC", "PBM E-score": -0.0011}, {"sequence": "CCACGAGC", "PBM E-score": -0.156}, {"sequence": "ACTTTTAA", "PBM E-score": 0.164}, {"sequence": "AGTTTCCC", "PBM E-score": 0.0318}, {"sequence": "CGCGAAGA", "PBM E-score": 0.141}, {"sequence": "AAAGCCAA", "PBM E-score": 0.065}, {"sequence": "CCTGTAAA", "PBM E-score": -0.226}, {"sequence": "CCCTGAAA", "PBM E-score": 0.181}, {"sequence": "AGATATGG", "PBM E-score": 0.0956}, {"sequence": "CCGCTTCA", "PBM E-score": 0.0476}, {"sequence": "AGAGAGAT", "PBM E-score": 0.0429}, {"sequence": "GGCCCGAA", "PBM E-score": 0.0586}, {"sequence": "ATGGGTTA", "PBM E-score": 0.0717}, {"sequence": "AGACCCAC", "PBM E-score": 0.0707}, {"sequence": "ATTTTAGA", "PBM E-score": 0.179}, {"sequence": "GGTCCAAA", "PBM E-score": -0.153}, {"sequence": "GCAGACAA", "PBM E-score": -0.0114}, {"sequence": "AGCACGCC", "PBM E-score": -0.00482}, {"sequence": "AGGAGGTA", "PBM E-score": -0.0657}, {"sequence": "CAGACTTC", "PBM E-score": -0.0901}, {"sequence": "ACTGAAGG", "PBM E-score": -0.0931}, {"sequence": "AAACCTGA", "PBM E-score": 0.207}, {"sequence": "GCGCTTGA", "PBM E-score": 0.0828}, {"sequence": "CTAGGTGA", "PBM E-score": -0.246}, {"sequence": "ACGCACGC", "PBM E-score": 0.00812}, {"sequence": "CGTAGCCA", "PBM E-score": -0.125}, {"sequence": "CAGTGCAG", "PBM E-score": -0.189}, {"sequence": "AGATCGTA", "PBM E-score": -0.28}, {"sequence": "ATGGTAAT", "PBM E-score": 0.039}, {"sequence": "AACCATGG", "PBM E-score": -0.0682}, {"sequence": "AGCCACGG", "PBM E-score": -0.208}, {"sequence": "CGTACCAG", "PBM E-score": -0.125}, {"sequence": "AGCCGTCA", "PBM E-score": -0.106}, {"sequence": "TTGGACAA", "PBM E-score": 0.0947}, {"sequence": "ATGTACAT", "PBM E-score": -0.125}, {"sequence": "CCAGAGGG", "PBM E-score": -0.183}, {"sequence": "ATCTTTGG", "PBM E-score": -0.00405}, {"sequence": "GATCCTAA", "PBM E-score": -0.0939}, {"sequence": "CTCAACAA", "PBM E-score": 0.0404}, {"sequence": "ATTCGAGG", "PBM E-score": -0.0102}, {"sequence": "CTTGGTAA", "PBM E-score": -0.108}, {"sequence": "CGGTTGGC", "PBM E-score": 0.0188}, {"sequence": "GGCAGAAC", "PBM E-score": 0.11}, {"sequence": "GAATCGTC", "PBM E-score": -0.0848}, {"sequence": "AATATAAA", "PBM E-score": 0.306}, {"sequence": "AGTCTAGC", "PBM E-score": -0.223}, {"sequence": "GACATCCC", "PBM E-score": 0.109}, {"sequence": "ATATTACA", "PBM E-score": 0.2}, {"sequence": "CCACATAA", "PBM E-score": -0.0066}, {"sequence": "CGGCGCAA", "PBM E-score": 0.0162}, {"sequence": "TAATATTA", "PBM E-score": 0.111}, {"sequence": "CCTCTCGC", "PBM E-score": -0.00841}, {"sequence": "ATCGCAAT", "PBM E-score": 0.179}, {"sequence": "CTCACTTC", "PBM E-score": -0.229}, {"sequence": "GATTTGGC", "PBM E-score": -0.0157}, {"sequence": "ATGCCCGA", "PBM E-score": -0.0725}, {"sequence": "AGCATAGA", "PBM E-score": -0.0405}, {"sequence": "ACGTCACT", "PBM E-score": -0.0232}, {"sequence": "CACAAGCC", "PBM E-score": -0.2}, {"sequence": "CGACGATC", "PBM E-score": 0.0524}, {"sequence": "CCCATTTA", "PBM E-score": 0.166}, {"sequence": "CGCGACAA", "PBM E-score": 0.174}, {"sequence": "AGCCACAT", "PBM E-score": -0.0125}, {"sequence": "AACAGTGT", "PBM E-score": 0.126}, {"sequence": "GAAGTCTC", "PBM E-score": -0.224}, {"sequence": "CGGAAACA", "PBM E-score": 0.209}, {"sequence": "GATACACC", "PBM E-score": 0.187}, {"sequence": "AGGCCGGA", "PBM E-score": -0.104}, {"sequence": "ACGAACGT", "PBM E-score": -0.0934}, {"sequence": "CATAGACG", "PBM E-score": 0.09}, {"sequence": "ATGATCAT", "PBM E-score": 0.234}, {"sequence": "CGAGGGCC", "PBM E-score": 0.0219}, {"sequence": "AAAGGAGG", "PBM E-score": -0.212}, {"sequence": "CAATAATC", "PBM E-score": 0.0713}, {"sequence": "ATGGGGTC", "PBM E-score": -0.0801}, {"sequence": "TGAGGTAA", "PBM E-score": 0.128}, {"sequence": "CGTAAACC", "PBM E-score": -0.0542}, {"sequence": "GCTTAAGC", "PBM E-score": -0.174}, {"sequence": "CTCGGATA", "PBM E-score": 0.0482}, {"sequence": "CGTCAAGA", "PBM E-score": 0.0127}, {"sequence": "TAGACCTA", "PBM E-score": -0.185}, {"sequence": "CTTCTTTC", "PBM E-score": 0.0898}, {"sequence": "GCGCGAGA", "PBM E-score": -0.0415}, {"sequence": "GCCCCGGC", "PBM E-score": 0.032}, {"sequence": "CGGTCCAC", "PBM E-score": -0.195}, {"sequence": "AAGAGCCG", "PBM E-score": -0.121}, {"sequence": "GGGCACGA", "PBM E-score": -0.0444}, {"sequence": "GACTTATC", "PBM E-score": 0.00177}, {"sequence": "CACTTGAC", "PBM E-score": -0.0688}, {"sequence": "AGCTACTA", "PBM E-score": -0.0121}, {"sequence": "ACCAGTCC", "PBM E-score": -0.168}, {"sequence": "ACTTTTTG", "PBM E-score": 0.237}, {"sequence": "GTACTACA", "PBM E-score": 0.105}, {"sequence": "TAGAATGA", "PBM E-score": 0.0492}, {"sequence": "GCCGCGAC", "PBM E-score": -0.025}, {"sequence": "AATCATCG", "PBM E-score": 0.00961}, {"sequence": "GGGCGACA", "PBM E-score": -0.0634}, {"sequence": "ATCCCGAG", "PBM E-score": -0.101}, {"sequence": "ATTAGGCC", "PBM E-score": -0.0539}, {"sequence": "GAGGAATA", "PBM E-score": 0.161}, {"sequence": "CATGTTAA", "PBM E-score": 0.162}, {"sequence": "CTAGAGCA", "PBM E-score": -0.16}, {"sequence": "ATCTACTC", "PBM E-score": 0.141}, {"sequence": "GTACAGGA", "PBM E-score": 0.00908}, {"sequence": "ACTGTAAT", "PBM E-score": 0.128}, {"sequence": "ACGCCGTG", "PBM E-score": 0.06}, {"sequence": "ATTCTCAC", "PBM E-score": 0.139}, {"sequence": "ATCGGAGG", "PBM E-score": -0.172}, {"sequence": "ACATGCGG", "PBM E-score": -0.00547}, {"sequence": "AGTGGAGG", "PBM E-score": -0.0716}, {"sequence": "GCTATGCA", "PBM E-score": -0.0367}, {"sequence": "CGGTTGAA", "PBM E-score": 0.0517}, {"sequence": "AGAGACGC", "PBM E-score": -0.107}, {"sequence": "CTGTGCTA", "PBM E-score": -0.0469}, {"sequence": "AAACTCAC", "PBM E-score": 0.146}, {"sequence": "ACGACTGC", "PBM E-score": -0.173}, {"sequence": "GAGCCACA", "PBM E-score": -0.0781}, {"sequence": "ATAGATTG", "PBM E-score": 0.172}, {"sequence": "CGCCAAAG", "PBM E-score": -0.108}, {"sequence": "ATGTGACA", "PBM E-score": 0.24}, {"sequence": "CGTAGGTA", "PBM E-score": -0.181}, {"sequence": "CCCAATCA", "PBM E-score": -0.0149}, {"sequence": "GCCTTGTA", "PBM E-score": -0.134}, {"sequence": "CTATCGCA", "PBM E-score": -0.0857}, {"sequence": "CGCAGAAG", "PBM E-score": -0.0903}, {"sequence": "ATACCGGA", "PBM E-score": -0.15}, {"sequence": "AGGCCGGG", "PBM E-score": -0.174}, {"sequence": "AGATCTCC", "PBM E-score": 0.0438}, {"sequence": "GGGTCGAA", "PBM E-score": 0.0113}, {"sequence": "CAAGTGCG", "PBM E-score": -0.143}, {"sequence": "CGAATACC", "PBM E-score": 0.121}, {"sequence": "AGATCCAA", "PBM E-score": -0.0504}, {"sequence": "TCGCGCGA", "PBM E-score": 0.0251}, {"sequence": "AGAACTAG", "PBM E-score": -0.111}, {"sequence": "ATTGATCC", "PBM E-score": 0.00951}, {"sequence": "TAACGTTA", "PBM E-score": 0.119}, {"sequence": "GAACATGA", "PBM E-score": 0.0383}, {"sequence": "CCGCTTAC", "PBM E-score": -0.134}, {"sequence": "CGAAATTA", "PBM E-score": 0.206}, {"sequence": "GTGGCAGA", "PBM E-score": -0.108}, {"sequence": "ATGTGCCG", "PBM E-score": -0.222}, {"sequence": "ACAAGAAG", "PBM E-score": 0.0468}, {"sequence": "ATAAGAGG", "PBM E-score": 0.0318}, {"sequence": "CATCCCGG", "PBM E-score": -0.11}, {"sequence": "ACCTGTAG", "PBM E-score": -0.136}, {"sequence": "ATCGATTG", "PBM E-score": 0.119}, {"sequence": "AACGCCAG", "PBM E-score": 0.0937}, {"sequence": "GCAAGGGC", "PBM E-score": -0.188}, {"sequence": "CCGGCACC", "PBM E-score": 0.0568}, {"sequence": "CTTATGCC", "PBM E-score": 0.128}, {"sequence": "CACGCGCG", "PBM E-score": -0.0391}, {"sequence": "TTGCCAAA", "PBM E-score": 0.111}, {"sequence": "AACCCTGA", "PBM E-score": 0.305}, {"sequence": "TACAAACA", "PBM E-score": 0.21}, {"sequence": "CATGCCTA", "PBM E-score": -0.0489}, {"sequence": "CCCTCGCC", "PBM E-score": 0.0165}, {"sequence": "AGGCCGTC", "PBM E-score": -0.114}, {"sequence": "CGCCCAGC", "PBM E-score": 0.0194}, {"sequence": "GAGTACCC", "PBM E-score": -0.155}, {"sequence": "AGCTGGGA", "PBM E-score": -0.0199}, {"sequence": "CACAGCCA", "PBM E-score": -0.0226}, {"sequence": "GCGTAGGA", "PBM E-score": -0.137}, {"sequence": "CTGAACAC", "PBM E-score": 0.132}, {"sequence": "AGCCATCC", "PBM E-score": -0.0935}, {"sequence": "AGGTATAG", "PBM E-score": 0.146}]}]}
